From article PMC6919601, “Identification of Plasmodium dipeptidyl aminopeptidase allosteric inhibitors by high throughput screening” (PLoS ONE, 2019)
In all, about 110,000 compounds went through this assay and about 230 (0.21%) showed an effect of 50% or more. Some of the results follow.

target: DPAP1 (Plasmodium falciparum, UniProt Q8IIJ9); assay: primary screen, percent inhibition; read by cleavage of a fluorogenic dipeptide substrate; higher = more effect of the substance; set-up: species or system P. falciparum D10 trophozoite lysates; single well
Sequence (Q8IIJ9 whole entry, looked up): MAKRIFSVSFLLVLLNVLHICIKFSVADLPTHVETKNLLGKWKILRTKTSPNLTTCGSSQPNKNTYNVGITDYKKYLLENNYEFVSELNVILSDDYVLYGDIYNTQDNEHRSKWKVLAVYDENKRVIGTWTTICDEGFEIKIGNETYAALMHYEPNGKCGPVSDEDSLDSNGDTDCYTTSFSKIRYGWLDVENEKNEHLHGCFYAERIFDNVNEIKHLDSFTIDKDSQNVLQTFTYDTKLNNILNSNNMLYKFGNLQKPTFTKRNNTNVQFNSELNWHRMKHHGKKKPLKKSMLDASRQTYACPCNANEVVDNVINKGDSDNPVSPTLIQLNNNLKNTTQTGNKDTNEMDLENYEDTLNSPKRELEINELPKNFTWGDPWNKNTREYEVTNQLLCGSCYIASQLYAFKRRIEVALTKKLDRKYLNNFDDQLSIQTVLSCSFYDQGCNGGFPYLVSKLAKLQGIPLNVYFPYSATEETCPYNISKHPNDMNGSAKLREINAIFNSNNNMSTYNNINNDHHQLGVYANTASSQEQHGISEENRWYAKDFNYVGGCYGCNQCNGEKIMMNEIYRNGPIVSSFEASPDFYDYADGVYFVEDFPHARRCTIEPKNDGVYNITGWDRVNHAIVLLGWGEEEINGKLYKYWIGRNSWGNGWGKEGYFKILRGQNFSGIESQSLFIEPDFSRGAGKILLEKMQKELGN
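Note: 30 min substrate incubation versus DMSO and 10 µM JCP410 controls.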

| Structure (SMILES) | % Inhibition @ 10 uM |
| --- | --- |
| Cc1noc2ncnc(N3CCCC(C(=O)NCc4ccc5c(c4)OCO5)C3)c12 (stereo not drawn) | -4.51% |
| CN(Cc1ccccc1)c1nnc(NC(=O)NC23CC4CC(CC(C4)C2)C3)s1 | -6.58% |
| CC(Cc1ccccc1)Nc1nc2c(ncn2C)c(=N)n1C (stereo not drawn) | 5.29% |
| O=C(OCc1ccco1)c1cc2cc(Br)cc(Br)c2oc1=O | -0.85% |
| CC1=C([N+](=O)[O-])C(c2ccccc2)NC(=O)N1C (stereo not drawn) | 4.54% |
| CCOc1ccc(-c2csc(/C(C#N)=C/c3ccccc3Cl)n2)cc1 | 2.13% |
| Cc1ccc(C)c(N2C(=O)C3CC=CC(C)C3C2=O)c1 (stereo not drawn) | -6.91% |
| COc1ccc(C(F)(F)F)cc1NC(=O)c1cccnc1 | 2.49% |
| CCc1nnc(SCc2nc(-c3ccc(OC)c(OC)c3)oc2C)c2cc3oc(C)cc3n12 | 10.1% |
| COc1ccc(-c2cc(-c3ccc(C)cc3)nc(OC)n2)cc1 | -0.856% |
| CCCCCc1ccc(-c2ccc(-c3noc(CCC)n3)cc2)cc1 | -2% |
| COc1ccc(-c2cc3nc(C)c(CCC(=O)NCCCN4CCCC4=O)c(C)n3n2)c(OC)c1 | -10.4% |
| NS(=O)(=O)c1ccc(NC(=O)c2ccc(F)cc2)cc1 | -1.77% |
| Cc1cc(C)nc(NC(=O)c2c(-c3ccccc3)noc2C)c1 | -0.0555% |
| O=C(Nc1ccc(Cl)c(Cl)c1)Nc1ccc2c(c1)OCO2 | -0.436% |
| CCOC(=O)N1CCC(NC(=O)CCc2nc3cccnc3n2-c2ccccc2)CC1 | -0.0115% |
| Cc1nc2c([N+](=O)[O-])c(Cl)ccc2s1 | -3.48% |
| Cc1[nH]c2ccc(C(=O)NCc3ccccc3Cl)cc2c1C | -4.71% |
| CC1=C(C(=O)Nc2ccccc2C)C(c2cccc(C)c2)C2=C(O)CCCC2=N1 (stereo not drawn) | -4.12% |
| CCC(CO)NS(=O)(=O)c1c(C)nc2sccn2c1=O (stereo not drawn) | -1.97% |
| CC(=O)Nc1sc2c(c1C(=O)Nc1ccc(Cl)cc1)CCC(C)C2 (stereo not drawn) | -2.74% |
| Cn1nc(-c2ccc(Cl)cc2)c2cc(C(=O)NCc3ccco3)sc21 | -3.09% |
| COc1ccccc1NS(=O)(=O)c1ccc(NC(C)=O)cc1 | -3.95% |
| Cc1onc(-c2ccccc2)c1C(=O)Nc1nccs1 | 0.408% |
| Cc1cccc(OCCCCN2CCCC2)c1C | -6.44% |
| CC1CCN(C(=O)C2CCN(S(=O)(=O)c3cccc4nonc34)CC2)CC1 | 4.07% |

| Structure (SMILES) | % Inhibition @ 10 uM |
| --- | --- |
| Cn1cc(Br)c(C(=O)N2CCN(c3cccc(Cl)c3)CC2)n1 | 6.1% |
| COc1ccc(C(C)NC(=O)c2ccc(F)cc2)cc1OC (stereo not drawn) | 1.83% |
| CCOC(=O)c1conc1-c1cccnc1 | 0.219% |
| CCC(C)NC(=O)C1CC(c2ccccc2OC)=NO1 (stereo not drawn) | 13% |
| Cc1ccc2[nH]c(/C(C#N)=C/c3cccn3-c3ccc(S(N)(=O)=O)cc3)nc2c1 | -2.87% |
| O=C(NCc1ccccc1)Nc1cccs1 | -1.6% |
| O=C(CSC1=NC(=O)C(Cc2ccccc2)C(=O)N1)Nc1ccc(Br)cn1 (stereo not drawn) | 11.5% |
| COc1ccc(C(CC(=O)O)CC(=O)O)cc1 | -1.68% |
| CC(CCc1ccccc1)NC(=O)CCNS(=O)(=O)c1ccc2nc(O)ccc2c1 (stereo not drawn) | -5.23% |
| N#C/C(=C\c1ccccc1F)c1nc(-c2ccc(Br)cc2)cs1 | -3.04% |
| COC(=O)C1=C(C)N=C2SCCC(=O)N2C1c1ccc(OCCC(C)C)cc1 (stereo not drawn) | -1.18% |
| CCc1ccc(OCCCSc2nc(-c3ccccc3)nc3cc(=O)[nH]n23)cc1 | 2.31% |
| Cc1ccc2nsnc2c1/N=C/c1c(O)nc(O)c(C#N)c1C | 0.687% |
| CC(Oc1ccc(Cl)cc1Cl)C(=O)Nc1ccc(S(=O)(=O)Nc2ncccn2)cc1 (stereo not drawn) | -9.11% |
| O=C(N/C(=C\c1ccccc1F)C(=O)N1CC2CC(C1)c1cccc(=O)n1C2)C1CCCCC1 (stereo not drawn) | -3.18% |
| COc1ccc(CCNCc2c(F)cccc2Cl)cc1OC | -9.37% |
| O=C(Cn1ccc2cc(S(=O)(=O)N3CCCC3)ccc21)NC1CC1 | 4.78% |
| CC(C)(C)NC(=O)c1ccc2snnc2c1 | -1.74% |
| O=C(NCCCN1CCOCC1)C1(c2ccccc2)CCCC1 | -3.72% |
| Cc1cccc(C(=N)NOC(=O)c2cccc(Br)c2)c1 | -4.93% |
| O=C(O)CCCC(=O)Nc1nc(-c2cccc3ccccc23)cs1 | -5.63% |
| O=C(COc1ccc(Cl)cc1)n1nc(-c2cccnc2)nc1NCc1cccs1 | -4.75% |
| CSc1nc(=O)c2c(n1C)NC(=O)CC2c1ccc(OC(C)C)cc1 (stereo not drawn) | -4.71% |
| O=C(NC1CCCCC1)c1ccc2c(c1)OCO2 | -2.54% |
| COc1ccc(-c2noc(N3CCC(Cc4ccccc4)CC3)n2)cc1OC | -2.46% |
| COc1ccc(OC)c(C2NC(=O)NC(C)=C2C(=O)Nc2ccc(C)cc2)c1 (stereo not drawn) | -11% |

| Structure (SMILES) | % Inhibition @ 10 uM |
| --- | --- |
| CCCCOc1ccc(C2=N/C(=C\c3ccccc3OC)C(=O)O2)cc1 | -2.64% |
| CCCOc1ccc(N2CC(C(=O)NC3=NCCS3)CC2=O)cc1 (stereo not drawn) | 0.583% |
| COc1ccc2c(c1OC)C(=O)N(c1ccc3c(c1)CCC3)C2=O | -3.76% |
| COc1cc(SC#N)ccc1/N=C/c1c(C)nn(-c2ccccc2)c1O | -6.7% |
| Cc1nn(CC(=O)NCCCN(C)C2CCCCC2)c(=O)c2cccn12 | -7.52% |
| Cc1cccn2cc(-c3ccc(NC(=O)C(C)C)cc3)nc12 | -6.29% |
| CC1CCN(S(=O)(=O)c2ccc(Cl)cc2Br)CC1 | 2.78% |
| CC(=O)NCc1nc2ccccc2n1Cc1ccccc1 | 8.7% |
| C=CCn1c(=O)sc2cc([N+](=O)[O-])ccc21 | 2.91% |
| COc1ccc(S(=O)(=O)Nc2ccc(NC(C)=O)cc2)c(Cl)c1Cl | -4.49% |
| O=C(N/C(=C\c1cccnc1)C(=O)N1CCCCC1)c1cccc(Br)c1 | -2.07% |
| Cc1cccc2sc(NC(=O)/C=C/C(=O)O)nc12 | -0.053% |
| Cc1ccc(C(=O)C2=C(O)C(=O)N(CC3CCCO3)C2c2cccc(Oc3ccccc3)c2)o1 (stereo not drawn) | -2.73% |
| CCN(CC)C(=O)C1CCCN(Cc2ccc(Cl)c(Cl)c2)C1 (stereo not drawn) | 1.48% |
| N#CC1=C(N)Oc2ccc3ccccc3c2C1c1ccccc1 (stereo not drawn) | -0.294% |
| NC(=O)C1(N2CCCCC2)CCN(C(=O)NCc2ccccc2)CC1 | 9.58% |
| Cc1ccc(-c2nnc3sc(COc4ccccc4C)nn23)cc1 | -4.02% |
| Cc1cc(NS(=O)(=O)c2ccc(NC(=O)COc3ccccc3Cl)cc2)no1 | -3.78% |
| Cc1ccc2nc(NCc3ccccc3Cl)c3nncn3c2c1 | -2.42% |
| O=C(NC1CCN(Cc2ccccc2)CC1)C1=Cc2sc3c(c2CS1)CCCC3 | 22.2% |
| CCOC(=O)c1c(-c2ccsc2)csc1N | 1.72% |
| CC(=O)C1=C(C)NC(=O)NC1c1ccc(C)cc1 (stereo not drawn) | 1.54% |
| Cc1nc2c(C(=O)NCc3ccccc3Cl)cnn2c(O)c1Cl | 1.27% |
| CCOC(=O)c1c(C)c(C(=O)NC(C)COC)c(C)n1C (stereo not drawn) | 1.72% |
| COc1ccc(CC(=O)Nc2ccc3ccccc3c2)cc1 | -2.78% |
| Cc1ccc2cc3cc(C(=O)NCCCN4CCCC4=O)oc3nc2c1 | -1.54% |

| Structure (SMILES) | % Inhibition @ 10 uM |
| --- | --- |
| C=CCOCC(O)C[S+](O)Cc1ccccc1 (stereo not drawn) | 0.634% |
| CCC1CCc2nc3sc(C(=O)Nc4ccc(C(C)=O)cc4)c(N)c3cc2C1 (stereo not drawn) | -3.03% |
| COc1ccc(-c2cc(N)n(S(=O)(=O)c3ccc(C)cc3)n2)c(OC)c1 | -0.495% |
| COc1cc(C(=O)Nc2nn3c(-c4ccco4)nnc3s2)cc(OC)c1OC | -1.56% |
| Cc1cc(C)nc(SCCC(=O)Nc2ccc(F)cc2)n1 | 3.04% |
| COc1c(F)c(F)c2c(C)c3ccccc3nc2c1F | 4.08% |
| O=C(Nc1nc(-c2ccc(S(=O)(=O)N3CCCC3)cc2)cs1)c1ccc(Cl)cc1 | 4.31% |
| COc1cc(OC)c(-n2cccc2/C=C2\C(=N)N3N=C(C)SC3=NC2=O)cc1Cl | -3.35% |
| O=C(NCc1nc2ccccc2n1CCOc1ccccc1)c1ccccc1 | -1.15% |
| CN(C)c1ccc(CN2CCCC(C(N)=O)C2)cc1 (stereo not drawn) | 0.217% |
| C/C=C(\C)CN1CCN(CCOCCO)CC1 | -1.64% |
| CCCN(CCO)Cc1ccccc1C(F)(F)F | -0.262% |
| CC1=C(C(=O)Nc2cccnc2)C(c2ccccc2Cl)n2nc(-c3cccnc3)nc2N1 (stereo not drawn) | 3.17% |
| CCOC(=O)c1c(NC(=O)CNCc2ccccc2)sc2c1CCN(C(=O)OCC)C2 | 6.51% |
| CC(c1ccccc1)N1C(=O)NC(NC(=O)C(C)(C)C)(C(F)(F)F)C1=O (stereo not drawn) | 0.907% |
| Cc1sc2ncn(CC(=O)NCCCC(=O)NCCC3=CCCCC3)c(=O)c2c1C | 4.33% |
| COc1ccc(Cl)cc1NC(=O)c1cccc(Cl)c1 | 11.7% |
| COc1cc(/C=C2/NC(=O)N(Cc3ccc(F)cc3)C2=O)cc(Br)c1OCC(=O)O | 3.21% |
| O=C1CC(N2CCN(Cc3ccc4c(c3)OCO4)CC2)C(=O)N1Cc1ccc2c(c1)OCO2 (stereo not drawn) | -4.89% |
| C=CC1C(N2CCOCC2)C(C)(C)S1(=O)=O (stereo not drawn) | 5.53% |
| CC(C)(C)OC(=O)N1CCC(c2c(C(=O)Nc3nccs3)cnn2-c2ccc(F)cc2)CC1 | 6.66% |
| CC1CCCCN1c1nnc(NC(=O)NC2CCCC2)s1 (stereo not drawn) | -2.85% |
| O=P(O)(C1CCCCC1)C1CCCCC1 | 4.44% |
| Cc1cc(-c2ccc(C)c(S(=O)(=O)N3CCC(c4ccccc4)C3)c2)on1 (stereo not drawn) | -5.86% |
